US12102672B2, “Immunogenic sequences from a phage tail length tape measure protein, bacteria expressing the same and their use in treating a cancer” (INSTITUT GUSTAVE ROUSSY, priority 2017, dated 2024)

Tested on: TMP1-specific CD8+ T cells
Conditions: oral gavage + CTX; dLN/mLN, spleen or MCA205 tumor

Substance: Enterococcus hirae strain IGR7 [IGR 7]
- accumulation of TMP epitope 1 prophage 2 specific CD8+ T cells (tetramer): accumulate in dLN and spleen
